Experimental data: PubChem BioAssay AID1030 (National Center for Advancing Translational Sciences (NCATS), 2008)
Among all 220,000 compounds or so, about 16,000 (7.3%) were called active. The shares of active, inactive and inconclusive entries below differ from those in the screen. Calls come from the whole dose curve; as a rule, active = well fitted inhibition curve with a large enough effect (not every such curve was filed as active); inconclusive = small, poorly fitted or top-dose-only effect, or another doubt; inactive = no such curve, though single readings can be large or run the other way. A potency beside an inconclusive call is a rough fit, not a confirmed value. Peptide text beside a SMILES is read from it. * marks the point of attachment. Cbz = O=C(OCc1ccccc1)*; OtBu = CC(C)(C)O*; tBu = CC(C)(C)*

These compounds were tested against Aldehyde dehydrogenase 1A1 (Homo sapiens) (UniProt P00352) (assay: qHTS Assay for Inhibitors of Aldehyde Dehydrogenase 1 (ALDH1A1)). Settings: Purified ALDH1A1, NADH fluorescence, propionaldehyde substrate; series mostly up to 75.3 µM.
Potency is the fitted concentration of half-maximal effect; tags give direction and shape of the fitted curve.

Sequence of UniProt P00352 (P00352 whole entry, looked up): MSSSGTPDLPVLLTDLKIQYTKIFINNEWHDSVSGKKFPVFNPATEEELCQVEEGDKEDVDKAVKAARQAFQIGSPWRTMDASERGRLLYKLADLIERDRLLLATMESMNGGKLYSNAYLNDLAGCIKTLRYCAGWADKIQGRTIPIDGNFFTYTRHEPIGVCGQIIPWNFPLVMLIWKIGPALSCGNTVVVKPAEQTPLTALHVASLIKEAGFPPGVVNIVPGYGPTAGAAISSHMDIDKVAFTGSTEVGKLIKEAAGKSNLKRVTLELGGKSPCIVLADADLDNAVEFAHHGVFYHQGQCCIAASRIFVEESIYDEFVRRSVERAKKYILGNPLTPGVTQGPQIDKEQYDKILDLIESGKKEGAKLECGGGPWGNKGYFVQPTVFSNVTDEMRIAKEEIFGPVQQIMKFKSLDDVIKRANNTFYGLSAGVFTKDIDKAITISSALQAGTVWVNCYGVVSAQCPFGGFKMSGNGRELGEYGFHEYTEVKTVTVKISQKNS

Potency, inconclusive:
CCOC(=O)CCSc1nc(-c2ccccc2)cc(C(F)(F)F)n1 28.2 µM [inhibitor, single point], Cc1ccc(OCCCC(=O)NC(C)c2ccccc2)c(C)c1 (stereo not drawn) 39.8 µM [inhibitor, single point], CCCc1nnc(-c2cc(OC)c(OC)c(OC)c2)o1 31.6 µM [inhibitor, single point], CCOC(=O)c1c(N)nn(C(=O)c2ccccc2F)c1-c1ccc(OC)cc1 35.5 µM [inhibitor, single point], c1ccc(-c2nc3ccccn3c2NC2CCCC2)nc1 22.4 µM [inhibitor, partial curve], CC1Cc2nc(SCC(=O)NCc3ccccc3)n(Cc3ccccc3)c(=O)c2S1 (stereo not drawn) 28.2 µM [inhibitor, partial curve], CC(C)OC(=O)c1ccc(NC(=O)C2C3CC4OC(=O)C2C4C3)cc1 (stereo not drawn) 39.8 µM [inhibitor, single point], CC1(C)SC(=S)N(/N=C/c2ccccc2)C1N(O)C(=O)Nc1ccc([N+](=O)[O-])cc1 (stereo not drawn) 28.2 µM [inhibitor, partial curve], CCCCNC(=O)CCCCCn1c(=O)[nH]c2cc(OC)c(OC)cc2c1=O 28.2 µM [inhibitor, single point], CCCCn1nc2cc(C(=O)NCc3cc(C(F)(F)F)cc(C(F)(F)F)c3)ccc2c1OCC 39.8 µM [inhibitor, single point], COc1ccc2[nH]c(=O)c(CN(C3CCCCC3)C(c3nnnn3Cc3ccco3)C(C)C)cc2c1 (stereo not drawn) 39.8 µM [inhibitor, single point], CCn1c(SCC(=O)c2ccc(NS(=O)(=O)c3ccccc3)cc2)nnc1-c1cccs1 22.4 µM [inhibitor, partial curve], Cc1ccc(NC(=O)CN2CCC(Cc3ccccc3)CC2)cc1S(=O)(=O)N(C)C 39.8 µM [inhibitor, single point], C=CCn1c(SCC(=O)NC(=O)c2cccn2C)nc2ccccc2c1=O 39.8 µM [inhibitor, single point], Fc1cccc(CN2CCCCCCC2)c1 20 µM [inhibitor, partial curve], COc1ccc(OC)c(NC(=O)c2cn(C)c(=O)c3cc(OC)c(OC)cc23)c1 17.8 µM [inhibitor, partial curve], CCN(CC)C(=O)CSc1nc2c(sc(=S)n2-c2ccccc2)c(=O)[nH]1 25.1 µM [inhibitor, single point], Cc1ccccc1Cn1nc(C)c(NC(=O)c2noc3c2CCc2ccccc2-3)c1C 37.7 µM [inhibitor, single point], Cc1ccc(/C=C(\C#N)C(=O)NC(C)C)o1 39.8 µM [inhibitor, single point], COc1ccc(/C=C2/C(=O)N(c3nc4ccccc4s3)N=C2CSc2ccc(Cl)cc2)cc1 35.5 µM [inhibitor, single point], COC(=O)c1c(-c2ccc(C)cc2)csc1NC(=O)Cc1ccc(OC)c(OC)c1 25.1 µM [inhibitor, partial curve], CCN1CCN(CC(=O)c2ccc(OC)cc2)CC1 28.2 µM [inhibitor, single point], CC(NC(=O)OCc1ccccc1)C(=O)NCC(=O)NC(Cc1ccc(OC(C)(C)C)cc1)C(=O)OC(C)(C)C (stereo not drawn) (Cbz-Ala-Gly-Tyr(tBu)-OtBu; configuration not given here) 20 µM [inhibitor, single point], CCCC(=O)NC(=S)Nc1ccccc1C(=O)OC 35.5 µM [inhibitor, single point], N#Cc1cccc(-c2cc(NCc3cccs3)ncn2)c1 39.8 µM [inhibitor, partial curve, poor fit], O=C(Nc1ccc2nc(SCc3ccc(Cl)cc3)sc2c1)c1ccccc1C(=O)N1CCOCC1 39.8 µM [inhibitor, single point], Cc1cccc(C(C)C)c1-n1nnnc1-c1ccccc1 35.5 µM [inhibitor, single point], CC(C)OC(=O)CSc1nnc(SCc2cccc3ccccc23)s1 31.6 µM [inhibitor, single point], CCn1c(=O)n(CC)c2cc(S(=O)(=O)Nc3cc(C)cc(C)c3C#N)ccc21 20 µM [inhibitor, single point], CCOC(=O)C1=C(C)NC2=C(C(=O)C(C(=O)OCC)C(c3ccc(OC)cc3)C2)C1c1ccccn1 (stereo not drawn) 28.2 µM [inhibitor, partial curve], CC(=O)N[C@@H](Cc1c[nH]c2ccccc12)C(=O)OCC(=O)Nc1ccc(Cl)c(S(=O)(=O)N(C)C)c1 10 µM [inhibitor, partial curve], COc1cccc(CNC(=O)C2CCN(S(=O)(=O)c3cccs3)CC2)c1 6.31 µM [inhibitor, partial curve], CN(c1ccccc1)S(=O)(=O)c1ccc(C(=O)Nc2nnc(C3CC3)s2)cc1 20 µM [inhibitor, partial curve], COc1ccc(-c2cc(C(F)(F)F)nc(SCC(=O)N(C)Cc3cn(C)nc3C)n2)cc1OC 14.1 µM [inhibitor, partial curve], CCOC(=O)c1cc(Sc2ccccc2N)cc(C(=O)OCC)n1 39.8 µM [inhibitor, single point], COc1cc(/C=C2/C(=N)N3C=CSC3=NC2=O)ccc1OCCCOc1c(C)cccc1C 14.1 µM [inhibitor, partial curve], CCn1c(C)c(C2=CCN(S(=O)(=O)c3ccccc3)CC2)c2ccccc21 39.8 µM [inhibitor, single point], O=C(CSc1nc2ccccc2s1)Nc1ccc(Cl)c(S(=O)(=O)N2CCOCC2)c1 39.8 µM [inhibitor, single point], COC(=O)c1ccc(NC(=O)C(=O)N2CCN(C(=S)Nc3cccc(OC)c3)CC2)cc1 44.7 µM [inhibitor, single point], Cc1ccc(Cl)cc1NC(=O)c1ocnc1C 35.5 µM [inhibitor, single point], COc1ccc([N+](=O)[O-])cc1C(=O)Nc1ccc(OCC(=O)N2CCOCC2)cc1 39.8 µM [inhibitor, single point], COc1ccc(/C=C/C(=O)Nc2ccc3nc4n(c(=O)c3c2)CCCC4)cc1OC 35.5 µM [inhibitor, single point], CC(=O)NC(=S)Nc1ccc(-c2nc3ccc(C)cc3s2)cc1 39.8 µM [inhibitor, single point], COc1cc(NC(=O)c2cccc(C)c2)c(Cl)cc1[N+](=O)[O-] 14.1 µM [inhibitor, partial curve]

Potency, inactive:
COc1cccc(C(O)Cc2nc3ccccc3n2C)c1OC (stereo not drawn), CCOC(=O)c1sc2nc(CSc3ccccc3)nc(NCCN(C)C)c2c1C, CCc1nc2ccccc2n1CC(=O)N1CCN(Cc2ccccc2)CC1, CCCc1cc(=O)[nH]c(SCC(=O)N(C)CC(=O)Nc2ccccc2CC)n1, COc1ccc(C(=O)n2nc(-c3ccco3)nc2N)cc1OC, Cc1ncsc1CCOC(=O)c1cccnc1, CCOC(=O)c1cc(CC)sc1NC(=O)CC1Sc2ccc(C(F)(F)F)cc2NC1=O (stereo not drawn), c1ccc(CNc2oc(-c3ccccc3)nc2-c2ccccc2)cc1, COCC(=O)Nc1cc(C)c2c(=O)oc3ccccc3c2n1, Cc1cc(C(=O)COC(=O)c2ccc[nH]c2=O)c(C)n1C, COc1ccc(S(=O)(=O)N2CCC(C(=O)N3CCCC3)CC2)cc1Cl, O=C1c2cccc3cccc(c23)C(=O)N1CCN1CCN(C(=S)Nc2ccccc2)CC1, O=C(NCC(c1ccco1)N1CCN(c2ccc(F)cc2)CC1)OCc1ccccc1 (stereo not drawn)

Potency, active:
CCN(Cc1ccncc1)Cc1cn[nH]c1-c1ccc(OC)cc1F 14.1 µM, Cc1nn(-c2ccccc2)c2c1C1(C(=O)N(C(C)C)c3ccccc31)C(C#N)=C(N)O2 (stereo not drawn) 1.12 µM, O=C1/C(=C\c2ccco2)SC(=S)N1Cc1ccccc1 14.1 µM, Cc1ccc(NN2C(=O)C=C(c3ccccc3)C2=O)cc1 15.8 µM, O=C(CC1Sc2ncnn2C1=O)Nc1ccccc1 (stereo not drawn) 2 µM, COc1ccc(NC(=O)COC(=O)c2ccc([N+](=O)[O-])o2)cc1Cl 22.4 µM, COc1ccc(O)c(C(=O)c2cc(C#N)c(=O)n(CC3CCCO3)c2)c1 (stereo not drawn) 25.1 µM, O=C(NC(=S)Nc1ccc(Oc2ccc(Cl)cc2)cc1)c1ccccc1 8.91 µM, CCC(/C=C1\Sc2ccc(OC)cc2N1CC)=C\c1sc2ccc(OC)cc2[n+]1CCCS(=O)(=O)[O-] 1.26 µM, Nc1c(C(=O)N2CCOCC2)sc(=S)n1-c1ccccc1 8.91 µM, CCOC(=O)c1cc(-c2ccc(/C=C3/C(=O)NC(=O)C(C#N)=C3C)o2)ccc1Cl 8.91 µM
